Assay results published in PubChem BioAssay AID1986 (Sanford-Burnham Center for Chemical Genomics, 2009).
The other results are listed elsewhere or left out. Further columns of the screen follow, without active or inactive calls.

test: cell-free HIV fusion peptide-binding blockers – biochemical, uHTS, fluorescence dequenching, primary screen (AID 1986); details: 30 min, measured here: repeat confirmation average inhibition, at 18.6 µM, stronger effect = higher value

| Compound | inhibition [%] |
| --- | --- |
| O=C(O)c1cc(-c2ccc(-c3c(-c4ccc5c(c4)OCO5)noc3-c3ccsc3)cc2)nc2ccccc12 | 73.7 |
| O=C(Nc1cccc(C(F)(F)F)c1)c1cccc(NS(=O)(=O)c2ccc(O)c(C(=O)O)c2)c1 | 83.6 |
| COc1cc([N+](=O)[O-])cc(/C=C2/SC(=S)N(Cc3ccccc3)C2=O)c1O | 52.3 |
| COc1cc(/C=C2\SC(=O)N(Cc3ccc(Cl)cc3)C2=O)cc([N+](=O)[O-])c1O | 72 |
| COc1ccc(S(=O)(=O)Nc2ccccc2C(=O)Nc2nc(-c3ccc(F)cc3)cs2)cc1OC | 59.3 |
| O=C(O)/C=C/C(=O)Nc1ccc(C2(c3ccc(NC(=O)/C=C/C(=O)O)cc3)c3ccccc3-c3ccccc32)cc1 | 69.4 |
| CC(C)CS(=O)(=O)C1=NN2C(=N)/C(=C\c3ccc(OC(=O)c4ccco4)cc3)C(=O)N=C2S1 | 68.7 |
| CCOc1cc(/C=N/N=C2/NC(=O)C(CC(=O)O)S2)ccc1OCc1ccc(Cl)cc1Cl (stereo unspecified) | 69 |
| CCC(Sc1nc2ccsc2c(=O)n1Cc1ccc(C(=O)O)cc1)C(=O)Nc1ccc(C)c(Cl)c1 (stereo unspecified) | 63.7 |
| CCCCCc1c2c(cc(O)c1C(=O)O)OC(=O)c1c(cc(OC)cc1C(=O)CCCC)O2 | 76.2 |
| Cc1ccc2nc(N3C(=O)C(O)=C(C(=O)c4ccco4)C3c3cccc(O)c3)sc2c1 (stereo unspecified) | 61.4 |
| CCOc1cc(/C=C2/C(=N)N3C(=NC2=O)SN=C3S(=O)(=O)C(C)C)ccc1OC(=O)c1ccco1 | 67.2 |
| C/C(=C/CCC(C)C1CCC2(C)C3CCC4C(C)(C)C(=O)CCC4(C)C3=CCC12C)C(=O)O (stereo unspecified) | 63.8 |
| O=C(N/N=C/c1cc(Br)c(O)c(Br)c1)c1cc2c(ccc3ccccc32)o1 | 74.1 |
| O=C(CCN1C(=O)/C(=C/c2cccs2)SC1=S)Nc1ccc(C(=O)O)c(O)c1 | 70.2 |
| CC(C)S(=O)(=O)C1=NSC2=NC(=O)/C(=C\c3ccc(-c4ccccc4)o3)C(=N)N21 | 94 |
| O=C(Nc1cc(C(=O)Nc2ccccc2C(=O)O)cc(C(=O)Nc2ccccc2C(=O)O)c1)c1ccccc1 | 82.6 |
| COc1ccc(NS(=O)(=O)c2ccc3c(c2)[C@H]2C=CC[C@H]2[C@@H](c2ccc(C(=O)O)cc2)N3)cc1 | 69.3 |
| CCc1nnc(NS(=O)(=O)c2ccc(NC(=O)/C=C/c3ccccc3Cl)cc2)s1 | 54.5 |

| Compound | inhibition [%] |
| --- | --- |
| CCCCCCCCCCCCCCCCn1cc[n+](CC(C)=O)c1 | 91.1 |
| O=C(Nc1ccc(Oc2ccc(Cl)cc2)c(Cl)c1)c1cc(I)cc(I)c1O | 76.8 |
| CSc1nc(SCC(=O)O)c2sc3nc(-c4ccccc4)c4c(c3c2n1)CCC4 | 69.8 |
| COc1cc(/C=C2\SC(=S)NC2=O)ccc1OS(=O)(=O)c1ccccc1 | 66.5 |
| COc1cc(Cl)cc(C(c2c(C(=O)O)[nH]c3ccccc23)c2c(C(=O)O)[nH]c3ccccc23)c1O | 84.3 |
| O=C(O)CCCN1C(=O)/C(=C/c2ccc(-c3nc4ccccc4s3)o2)SC1=S | 60.4 |
| O=C(CN1C(=O)S/C(=C\c2cccs2)C1=O)Nc1ccc(C(=O)O)c(O)c1 | 50 |
| O=c1cc(-c2ccccc2)nc2c(-c3ccccc3)c(C(F)(F)F)[nH]n12 | 70.4 |
| COc1ccc(/C=C2/SC(=S)N(CC(=O)O)C2=O)cc1OCc1ccc(Cl)cc1 | 86.3 |
| O=C(O)c1cc(NN=C2c3ccccc3-c3ccccc32)ccc1Cl | 54.7 |
| O=C(NN1C(=O)/C(=C\c2ccc(O)c([N+](=O)[O-])c2)SC1=S)c1ccccc1Cl | 53.8 |
| N=C1/C(=C/c2ccc(-c3cccc(C(=O)O)c3)o2)C(=O)N=C2SC=C(c3ccccc3)N12 | 85.2 |
| O=c1/c(=C\c2cc([N+](=O)[O-])cc([N+](=O)[O-])c2O)sc2nc3ccccc3n12 | 109 |
| O=C(O)CCCCCN1C(=O)/C(=C\c2cn(-c3ccccc3)nc2-c2cccs2)SC1=S | 68.7 |
| O=C(CSc1nc2ccccc2c(=O)n1Cc1ccccc1)Nc1ccc(Br)cc1C(=O)O | 58.4 |
| Cc1cc(/C=c2\sc3nc4ccccc4n3c2=O)c(C)n1-c1ccc(C(=O)O)cc1 | 63.3 |
| COc1ccc(-c2nn(-c3ccccc3)cc2/C=C2/SC(=S)N(CCC(=O)O)C2=O)c(C)c1 | 67.1 |
| Cc1cc(C)c2nc(N3C(=O)C(O)=C(C(=O)c4ccco4)C3c3ccco3)sc2c1 (stereo unspecified) | 80.5 |
| O=C(NCCc1ccccc1)c1ccc2c(=O)[nH]c3c(C(=O)NCC4CCCO4)sc(=S)n3c2c1 (stereo unspecified) | 57.5 |

| Compound | inhibition [%] |
| --- | --- |
| CCS(=O)(=O)C1=NSC2=NC(=O)/C(=C\c3ccc(OS(=O)(=O)c4ccccc4)c(OC)c3)C(=N)N21 | 75.3 |
| O=C(O)c1cccc(-n2cccc2/C=C2/NC(=O)N(c3ccc(Cl)cc3)C2=O)c1 | 63.4 |
| CCOC(=O)c1sc(N2C(=O)C(O)=C(C(=O)c3ccco3)C2c2ccc([N+](=O)[O-])cc2)nc1C (stereo unspecified) | 50 |
| C=CCOC(=O)C1=C(C)N=c2s/c(=C3\C(=O)N(CC(=O)O)c4ccccc43)c(=O)n2C1c1ccc(OC)cc1 (stereo unspecified) | 55.3 |
| CC(C)c1ccc(OCC(=O)Nc2cccc(C(=O)Nc3ccccc3C(=O)O)c2)cc1 | 58.4 |
| Nc1c(S(=O)(=O)O)cc(NC(=O)c2ccccc2)c2c1C(=O)c1ccccc1C2=O | 79.7 |
| O=[N+]([O-])c1cc(Cl)cc(/C=N/NC(=S)Nc2cc(S(=O)(=O)N3CCOCC3)ccc2Cl)c1O | 76.1 |
| CC1=C(C#N)C(=O)NC(=O)/C1=C\c1ccc(-c2cc(C)c(C)cc2[N+](=O)[O-])o1 | 57.7 |
| O=C(O)CCN1C(=O)/C(=C2\C(=O)N(Cc3ccc(F)cc3)c3ccccc32)SC1=S | 56 |
| O=C(O)c1[nH]c2ccccc2c1C(c1ccccc1)c1c(C(=O)O)[nH]c2ccccc12 | 73.4 |
| O=C(O)CN1C(=O)/C(=C\c2cc(Br)ccc2OCc2ccccc2Cl)SC1=S | 82.5 |
| O=C(CCN1C(=O)/C(=C\C=C\c2ccccc2)SC1=S)Nc1ccccc1C(=O)O | 75.8 |
| COc1cc(C(c2c(C(=O)O)[nH]c3ccccc23)c2c(C(=O)O)[nH]c3ccccc23)ccc1OCc1ccccc1 | 86.3 |
| O=C(O)CN1C(=O)/C(=C\c2cccc(OCc3ccc(Cl)cc3)c2)SC1=S | 64.5 |
| COC(=O)c1sc(-c2ccc(C(C)(C)C)cc2)cc1NC(=O)CSCC(=O)O | 56.8 |
| CCc1nnc(NS(=O)(=O)c2ccc(NC(=S)NC(=O)/C=C/c3ccc(F)cc3)cc2)s1 | 59.3 |
| O=C(O)CN1C(=O)/C(=C\c2ccccc2OCc2ccc(Cl)cc2Cl)SC1=S | 69.3 |
| O=C(O)CN1C(=O)/C(=C\c2cc(Br)ccc2OCc2ccc(Cl)cc2)SC1=S | 67.1 |
